# Hit rate of the full screen: of about 50,000 compounds, about 800 (1.6%) showed an effect of 50% or more. The list shows a part of the results.
# Molecular target: Bcl-2-like protein 10 (Homo sapiens) (UniProt Q9HD36)
# Test: TR3 peptide-Bcl-B binding displacers, biochemical primary FP assay, phenotype converters (AID 1240);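 note: 0% = Bcl-B with tracer peptide and DMSO and 100% = tracer peptide lacking Bcl-B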
# Settings: GST-Bcl-B / FITC-TR3 peptide fluorescence polarization; stronger effect = higher value; compound at 3.75 mg/L
# UniProt Q9HD36, sequence (Q9HD36 whole entry, looked up): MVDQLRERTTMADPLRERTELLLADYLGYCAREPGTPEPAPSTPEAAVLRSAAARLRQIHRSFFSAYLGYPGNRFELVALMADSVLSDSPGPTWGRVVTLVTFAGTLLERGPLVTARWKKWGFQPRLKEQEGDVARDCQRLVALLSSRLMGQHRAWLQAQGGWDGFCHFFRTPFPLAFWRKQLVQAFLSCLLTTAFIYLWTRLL
row,SMILES,displacement [%]
1,N#C/C(=C(/O)CO/N=C/c1ccccc1Cl)c1nc2ccccc2[nH]1,53.6
2,C\C(=N/N=C/C=C/c1ccco1)C1C(=O)c2ccccc2C1=O,45.8
3,CC1=C(C(=O)OC2CCCCC2)C(c2ccccc2[N+](=O)[O-])C2=C(CCCC2=O)N1 (stereo unspecified),5.3
4,CN(Cc1ccccc1)Cc1c(O)ccc2c3c(c(=O)oc12)CCC3,-3.2
5,COC(=O)c1ccccc1NC(=O)COc1ccc(Cl)cc1C,-6
6,Cc1cccc(OCC(=O)NCc2ccc(F)cc2)c1,-4.3
7,O=C(Nc1ccc2nn(-c3ccc(F)cc3)nc2c1)c1cccc(Br)c1,-6.3
8,CCOc1cc(/C=N/NC(=O)c2cc(-c3ccc4ccccc4c3)n[nH]2)ccc1O,-6.7
9,CC(C)(C)C1CCc2c(sc(NC(=O)c3ccc(Br)cc3)c2C(N)=O)C1 (stereo unspecified),2.8
10,O=C(c1ccccc1CCc1ccccc1)N1CCCc2ccccc21,3.9
11,O=C1C(=Cc2cc(Br)ccc2OCc2ccccc2)C(=O)c2ccccc21,17.1
12,NC(=O)c1cccc(NC(=O)c2ccccc2I)c1,-4.6
13,COc1cc(/C=C(/C#N)C(N)=O)cc(Br)c1O,-72.2
14,CC(c1ccccc1C(O)(c1ccccc1)C(F)(F)F)N(C)C (stereo unspecified),-3.1
15,COc1ccc(-c2noc(-c3ccc(C)c([N+](=O)[O-])c3)n2)cc1OC,54.4
16,Cc1ccc2c(c1)C1C=CCC1C(C(=O)O)N2 (stereo unspecified),142
17,COc1ccc(C(=O)N2CCN(C(=O)c3ccc(-c4ccccc4)cc3)CC2)cc1OC,-7
18,COc1cc(NC(=O)c2cc3n(n2)C(C(F)(F)F)CC(c2ccccc2)N3)c(OC)cc1Cl (stereo unspecified),2.7
19,CC(=O)c1ccc(N(C(C)=O)C2=C(NCCO)C(=O)c3ccccc3C2=O)cc1,9.9
20,COc1ccc(C(=O)Nc2sc3c(c2C(=O)Nc2cccc4ccccc24)CCCC3)cc1OC,2
21,CCOc1ccc2c(c1)C(C)=CC(C)(C)N2C(=O)CN1C(=O)CCC1=O,12.7
22,O=C1C(=O)N(c2nc3ccccc3s2)C(c2ccccc2F)/C1=C(/O)c1ccccc1 (stereo unspecified),6.1

row,SMILES,displacement [%]
1,CN1CCN(NC(=O)c2ccc([N+](=O)[O-])cc2Cl)CC1,9.6
2,CCOc1ccc(NC(=O)c2cnn(-c3ccccc3)c2NC(=O)c2ccccc2F)cc1,7.8
3,CC(C)c1ccc(/C=N/N=C2/NC(=O)C(Cc3ccccc3)S2)cc1 (stereo unspecified),-0.3
4,O=C1CC(N2CCN(C/C=C/c3ccccc3)CC2)C(=O)N1c1ccc(Cl)c(Cl)c1 (stereo unspecified),-1.4
5,O=C(NC(=S)Nc1ccccc1C#Cc1ccccc1)c1ccc(Br)cc1,22.3
6,Cc1cc2c(cc1Br)NC(=O)C2=O,-2.1
7,CC1(C)CC(NC(=O)c2ccccc2F)CC(C)(C)N1,-12.3
8,CCN(CC)c1ccc(NC(=O)/C=C/c2cc(OC)ccc2OC)cc1,12.7
9,O=C1C=C(c2ccccc2)CC(c2ccccc2)C1n1nnc2ccccc21 (stereo unspecified),-4.3
10,CCCC1=NN2C(=N)/C(=C/c3cccc(OCc4ccccc4F)c3)C(=O)N=C2S1,6
11,Cc1c(-c2ccc(C=O)o2)ccc([N+](=O)[O-])c1C,12.2
12,CN1CCN(Cc2c(O)ccc3c(=O)c(-c4ccccc4)coc23)CC1,-1.7
13,Cc1ccc(C(=O)NCc2ccc(Cl)c(Cl)c2)o1,-5.6
14,COc1cccc(C(=O)Nc2ccccc2CO)c1,4.5
15,Cc1ccc(C(=O)Nc2sc3c(c2C(=O)N2CCCCCC2)CCCC3)cc1,2
16,CSc1nc2[nH]c3c(c2c2nnnn12)CCCC3,1.7
17,O=[N+]([O-])c1ccc(C=Nc2ccc(Br)c(Cl)c2)s1,-0.3
18,O=C(Nc1ccc(F)cc1)c1cc([N+](=O)[O-])ccc1Br,13.3
19,COc1cc(N=Cc2c(O)n(-c3ccccc3F)c(=O)[nH]c2=O)cc(OC)c1OC,3.1
20,Cc1c(C(c2ccco2)c2c(C)n(C)n(-c3ccccc3)c2=O)c(=O)n(-c2ccccc2)n1C,-5.3
21,COc1ccccc1/C=C1\SC(=S)N(NC(=O)Cc2ccccc2)C1=O,-3.8
22,CCCCOc1ccc(S(=O)(=O)N(CC)CC)cc1,10.6

row,SMILES,displacement [%]
1,Cc1cc(Cl)ccc1OC(=O)c1cc2ccccc2o1,-0.5
2,COC(=O)c1cc(NC(=O)C(Sc2ccccc2)c2ccccc2)cc(C(=O)OC)c1 (stereo unspecified),-7.9
3,COCCNC(=O)CN(c1cccc(Br)c1)S(=O)(=O)c1ccccc1,3.9
4,CN1C(=O)NC(=O)/C(=C\c2ccc(Cl)cc2Cl)C1=O,3.8
5,Nc1ccc(O)c(-c2nc3ccc(N)cc3[nH]2)c1,25.4
6,Cc1cc(Br)c2c(c1)c(N=NC(N)=O)c(O)n2C,4.9
7,O=C(Nc1cccc(Cl)c1Cl)c1cc(-c2cccs2)nc2ccccc12,6.4
8,COc1ccc(NC(=O)O/N=C\c2ccc(F)cc2)cc1,6.5
9,COc1cc(C(=O)Nc2cc(Cl)cc(Cl)c2)cc(OC)c1OC,-8
10,CC(C)c1ccc(N(CC(=O)Nc2ccccc2Cl)S(=O)(=O)c2ccccc2)cc1,-3.7
11,CCC1CCc2c(sc(NC(=O)c3c(-c4c(Cl)cccc4Cl)noc3C)c2C(N)=O)C1 (stereo unspecified),-12.1
12,O=C(CC1(O)C(=O)Nc2ccc(Br)cc21)c1cccs1 (stereo unspecified),-0.3
13,N#CC(C#N)=C/C(=C/C(C#N)C#N)c1ccccc1,109
14,CCOC(=O)c1c(C)sc(C=O)c1NC(=O)c1ccc(Cl)cc1,-15.7
15,NS(=O)(=O)c1ccc2c(c1)Cc1cc(S(N)(=O)=O)ccc1-2,-3.9
16,C=C(C)COc1ccc2oc(-c3ccccc3)c(C(=O)OCC)c2c1,7.6
17,O=C1NC(=S)S/C1=C/c1cccc(OCc2ccccc2)c1,5.4
18,O=C(Nc1ccccc1)C1CC(=O)N(C2CCCCC2)C1 (stereo unspecified),0.3
19,O=C1C2ON(c3ccccc3)C(c3cccc([N+](=O)[O-])c3)C2C(=O)N1Cc1ccccc1 (stereo unspecified),-3.8
20,COc1ccccc1-c1coc2c(CN3CCC(C)CC3)c(O)ccc2c1=O,11.9
21,COC(=O)C1=C(C)N(C)C(=O)/C1=C\c1ccc2c(c1)OCO2,-0.7
22,CCOC(=O)c1[nH]c(=O)[nH]c1Cn1ccnc1,-4.6

row,SMILES,displacement [%]
1,COc1ccc(C2CC(=O)C3=C(C2)Nc2ccccc2NC3c2cccc(F)c2)cc1 (stereo unspecified),6.4
2,CCOc1ccc(/C=C2\C(=O)NC(=O)N(c3ccccc3C)C2=O)cc1Cl,0.3
3,O=C1CC(O)(C(F)(F)F)Oc2c1ccc1ccccc21 (stereo unspecified),4.7
4,COC(=O)c1cccc(-c2ccc(/C=C3\C(=O)N(c4ccc(S(N)(=O)=O)cc4)N=C3C)o2)c1,-5.2
5,O=C(N/N=C/c1c(F)cccc1Cl)c1ccccc1I,15.3
6,CCOc1ccc(C(=O)Nc2cccc([N+](=O)[O-])c2)cc1Cl,11.6
7,Cc1ccc(OCCn2c(SCc3nc4ccccc4[nH]3)nc3ccccc32)cc1,18
8,CCCCNC(=O)CCC(=O)NN(C)C,7.6
9,O=C(O)CN1C(=O)/C(=C/c2cccc(OCc3ccccc3Cl)c2)SC1=S,5.1
10,N=c1sc(Cc2ccc(Br)cc2)cn1CC(=O)c1ccc(Cl)cc1,-9.8
11,COc1cc(/C=C2\C(=O)NC(=O)N(c3ccc(Cl)cc3)C2=O)c([N+](=O)[O-])cc1OC,17.3
12,CCOC(=O)c1cc2n(c1N(C(C)=O)C(C)=O)-c1ccccc1C2=O,-4.9
13,COc1ccc(CCNC2CC(=O)N(c3ccc(F)cc3)C2=O)cc1OC (stereo unspecified),3.2
14,CC1=C(C#N)C(=O)NC(=O)/C1=C\c1ccc(-c2cc(C)c(C)cc2[N+](=O)[O-])o1,9.4
15,COc1cccc(-c2cc(C(=O)Nc3nn[nH]n3)c3ccccc3n2)c1,-0.9
16,C(=C\c1ccccc1)/CSc1nnc(-c2ccco2)n1-c1ccccc1,-12.5
17,COC(=O)c1ccccc1NC(=O)CN(c1cccc(Br)c1)S(=O)(=O)c1ccccc1,6.6
18,CC(=O)Nc1ccc(C(=O)n2nc(C)cc2C)cc1,2
19,COc1ccc(C(=O)/C=C/Nc2cccc(Cl)c2Cl)cc1,13.4
20,CCOc1ccccc1NC(=O)c1c(NC(=O)c2ccc(C)cc2)sc2c1CCCC2,-0.3
21,COc1ccc(COc2ccc3c(C)cc(=O)oc3c2)cc1,-1.5
22,O=C(Oc1c(Br)cc(Br)cc1/C=N/NC(=O)c1ccccn1)c1cccc(F)c1,18.3

row,SMILES,displacement [%]
1,Cc1ccc(C(=O)N/C(=C\c2cccc([N+](=O)[O-])c2)C(=O)N2CCOCC2)cc1,0.8
2,COc1cc2c(cc1NC(=O)COc1ccc(C)cc1Br)oc1ccccc12,9.1
3,COCCNC(=O)c1cc2nc(-c3ccc(OC)c(OC)c3)cc(C(F)(F)F)n2n1,-7.3
4,Cc1ccc(Cl)cc1NC(=O)CN(CCc1ccccc1)S(=O)(=O)c1ccccc1,-3.4
5,COc1ccc(N(C(C)C(=O)Nc2cc(C)cc(C)c2)S(C)(=O)=O)cc1 (stereo unspecified),7.3
6,Cc1cccc(C)c1OCC(=O)Nc1sc2c(c1C(N)=O)CCC2,-1.5
7,O=C(Nc1nc2ccccc2n1CCN1CCCCC1)c1ccc(Cl)cc1,-22.2
8,Clc1ccc(CC(Cc2nc3ccccc3[nH]2)c2nc3ccccc3[nH]2)cc1 (stereo unspecified),-4.3
9,C/C(=N\Nc1ccc([N+](=O)[O-])cc1)c1ccc(-n2nncc2C)cc1,47.3
10,Cc1cccc(N2C(=O)C(=O)/C(=C(\O)c3ccccc3)C2c2ccc(F)cc2)c1 (stereo unspecified),5
11,CC1=NN(C(=O)c2ccncc2)C(O)(c2cccnc2)C1 (stereo unspecified),11
12,COc1ccc(N(CC(N)=O)S(C)(=O)=O)cc1,-0.4
13,COc1cc(-c2c(C#N)c(N)n3c(nc4ccccc43)c2C#N)ccc1OCc1ccccc1F,-3.9
14,Cc1ccc(N2C(=O)CC(Nc3ccc(N4CCOCC4)cc3)C2=O)cc1 (stereo unspecified),-2.5
15,COc1ccccc1N1CCN(/N=C\c2cccc(OC)c2O)CC1,2.5
16,FC(F)(F)c1ccc2nnc(-c3ccc(Br)cc3)n2c1,10.3
17,COc1ccc(NC(=O)c2cc(OC)c(OC)c(OC)c2)cc1OC,7.5
18,CC1=NN(c2ccc(S(N)(=O)=O)cc2)C(=O)/C1=C\c1ccc(O)c([N+](=O)[O-])c1,6.5

# Source: PubChem BioAssay AID1240 (Sanford-Burnham Center for Chemical Genomics, 2008)
